# About 120 (0.25%) of roughly 48,000 compounds were called active. This list was built around the results that the source calls inconclusive (neither active nor inactive); the mix of calls is not that of the screen. Calls follow the shape of the dose curve; as a rule, active = well fitted activation curve with a large enough effect; inconclusive = small, poorly fitted or top-dose-only effect, or another doubt; inactive = no such curve, though single readings can be large or run the other way. Where the call is inconclusive, the potency comes from a doubtful curve fit.
# Experiment: Primary qHTS for Identification of Small Molecule Activators of Huntingtin-Antisense Promoter Activity; also: nearly all actives have a fitted effect of over 55% in size
# Settings: HEK293 HTT-AS promoter firefly luciferase reporter, 24 h; activity change, positive = activation: at 57.5 µM (top of the series), percent change from vehicle, -100% = no light unless noted
# Method in brief: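 Firefly luciferase signal from promoter-reporter HEK293 cells was scaled between vehicle (0%) and zero RLU (-100%). Compounds were tested at final concentrations of up to 57.5 uM over 24 h at 37 degrees C. PTC124 at 50 uM final served as control inhibitor.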
# Potency is read from the fitted curve at half-maximal effect; tags tell the direction and shape of the fitted curve.
SMILES,Potency,"activity change, positive = activation"
Cc1cccc(C(=O)Nc2nc3c(s2)CCCC3)c1,"inconclusive: 1 µM [activator, partial curve, poor fit]",–
COc1ccc(-c2nnc(SCC(=O)Nc3cccc(C)c3)s2)cc1,inactive,–
CC(=O)N1CCc2cc(CNS(=O)(=O)c3cccs3)ccc21,"inconclusive: 15.8 µM [activator, partial curve, poor fit]",–
Cc1ccc(CNC(=O)C2CCN(c3nn4cc(-c5ccc(F)cc5)nc4s3)CC2)cc1,"inconclusive: 3.55 µM [activator, partial curve, poor fit]",–
Cc1ccc(NC(=O)/C(C#N)=C/c2ccc(C)o2)cc1,"inconclusive: 1.12 µM [activator, partial curve, poor fit]",–
CCS(=O)(=O)N1CCc2cc(C(=O)NCCc3ccccc3)ccc21,"inconclusive: 3.16 µM [activator, full curve]",–
CCN(CC)CCNC(=O)c1ccc2c(c1)sc1nc(-c3ccc(F)cc3)cn12,"inconclusive: 3.98 µM [activator, partial curve, poor fit]",–
Cc1ccc(C)n1-c1nnc(N2CCCC(C(=O)Nc3ccc(C(C)C)cc3)C2)s1 (stereo not drawn),"inconclusive: 22.4 µM [activator, partial curve, poor fit]",–
O=C(COc1ccccc1F)Nc1ccc(-c2nc3ccccc3s2)cc1,"inconclusive: 0.251 µM [activator, full curve, poor fit]",–
CCCCOc1ccc(C(=O)Nc2ccc(-c3nc4ccccc4s3)cc2C)cc1,"inconclusive: 2 µM [activator, partial curve, poor fit]",–
COc1cc(C)ccc1OCCSc1nc2ccc(NC(=O)c3ccc(F)cc3)cc2s1,inactive,–
CCCC(=O)OC1=CN(Cc2ccccc2)S(=O)(=O)c2ccccc21,inactive,–
Cc1ccc(C(=O)N2CCc3cc(CNC(=O)COc4ccccc4)ccc32)cc1,inactive,–
O=S(=O)(c1cccc(C(F)(F)F)c1)n1c(/C=C/c2ccccc2)nc2ccccc21,"inconclusive: 2.51 µM [activator, partial curve, poor fit]",–
O=Nc1c(-c2c(O)[nH]c3cc(Br)ccc23)[nH]c2ccccc12,"inconclusive: 0.385 µM [activator, full curve]",–
O=C(NCC(c1ccco1)S(=O)(=O)c1ccc(Cl)cc1)c1ccccc1F (stereo not drawn),inactive,–
CC(C)Oc1ccc(CNC(=O)c2ccc(NC(=O)c3nsc4ccccc34)cc2)cc1,"inconclusive: 0.251 µM [activator, full curve, poor fit]",–
Cc1nn2c(=O)cc(COC(=O)c3ccccc3NC(=O)c3ccccc3C)nc2s1,"inconclusive: 14.1 µM [activator, partial curve, poor fit]",–
CCCCOc1cccc(C(=O)Nc2cc3nn(-c4ccc(F)cc4)nc3cc2C)c1,"inconclusive: 3.16 µM [activator, full curve]",–
Cc1ccc2oc3c(c(=O)c2c1)C(c1ccccc1F)N(CCCN1CCOCC1)C3=O (stereo not drawn),"inconclusive: 22.4 µM [activator, partial curve, poor fit]",–
Cc1cc(C)cc(OCC(=O)Nc2ccc(-c3nc4ccccc4s3)cc2)c1,"inconclusive: 0.891 µM [activator, full curve, poor fit]",–

SMILES,Potency,"activity change, positive = activation"
Cc1ccc(NC(=O)N(Cc2cn(C)c3ccccc23)C2CCCCC2)cc1C,"inconclusive: 10 µM [activator, partial curve]",–
COc1ccc(C(=O)CC2(O)C(=O)N(Cc3ccccc3Cl)c3ccccc32)cc1 (stereo not drawn),inactive,–
CC(C)c1ccc(CNc2nc(-c3ccco3)nn2S(=O)(=O)c2ccc3ccccc3c2)cc1,"inconclusive: 17.8 µM [activator, partial curve, poor fit]",–
COc1ccc(-c2nc3sc(CCNC(=O)c4cc(Cl)ccc4OC)c(C)n3n2)cc1,"inconclusive: 2 µM [activator, partial curve, poor fit]",–
Cc1ccc(C(C)(C)C)c(OCC(=O)NCCc2nc3ccccc3[nH]2)c1,inactive,–
CCOc1ccc(C2=NC(c3cccs3)=Nc3ccc(C(C)C)cc3N2)cc1,"inconclusive: 7.08 µM [activator, partial curve]",–
CCOc1ccccc1-n1nnc(-c2nc(-c3ccccc3)no2)c1N,"inconclusive: 1.12 µM [activator, full curve, poor fit]",–
CN1CCCC(n2nc(Cc3ccc(Cl)cc3)c3ccccc3c2=O)CC1 (stereo not drawn),"inconclusive: 17.2 µM [activator, partial curve, poor fit]",–
Cc1nc2cc(-c3cccc(F)c3)nn2c(C)c1CCC(=O)NC1CCCCC1,inactive,–
CC(=O)c1ccc(NS(=O)(=O)c2ccc3[nH]c4c(c3c2)CCCCCC4)cc1,inactive,–
CCCCN(C)CCNC(=O)C1CCN(c2nc3ccc(CC)cc3s2)CC1,"inconclusive: 2 µM [activator, single point]",–
CCN(c1ccccc1)c1nnc(NC(=O)Nc2cccc(C(F)(F)F)c2)s1,inactive,–
CC(=O)NCCc1nc2ccccc2n1CCCCOc1ccc(Cl)cc1,inactive,–
COc1ccccc1N1CCN(S(=O)(=O)c2ccc(-c3cc(C(F)(F)F)on3)s2)CC1,–,inconclusive: -73.9% [activator]
CC1CCC(NC(=O)c2ccc3c(c2)N(Cc2cccc(F)c2)C(=O)c2ccccc2S3)CC1 (stereo not drawn),"inconclusive: 12.6 µM [activator, partial curve]",–
[O-][n+]1cccc(/C(Cl)=N/OC[C@@H](O)CN2CCCCC2)c1,inactive,–
CCOC(=O)c1ccc(NC(=O)c2sc3ccccc3c2Cl)cc1,"inconclusive: 7.08 µM [activator, partial curve]",–
Cc1ccc(-c2nnc3ccccc3c2C(=O)Nc2ccc(C)c(F)c2)cc1,"inconclusive: 22.4 µM [activator, single point]",–
CSc1ccc(NC(=O)C2CCN(c3ncccn3)CC2)cc1,"inconclusive: 7.94 µM [activator, partial curve, poor fit]",–
CCCCNc1oc(-c2ccc(COc3ccccc3C)o2)nc1C#N,inactive,–
Cc1ccc(C(=O)Nc2ccc(-c3nc4ccccc4o3)cc2)cc1Cl,"inconclusive: 1.41 µM [activator, full curve, poor fit]",–

SMILES,Potency,"activity change, positive = activation"
CCc1nonc1NC(=O)c1oc2cc(C)c(C)cc2c1C,"inconclusive: 25.1 µM [activator, single point]",–
COc1ccc(C(=O)Oc2ccc(C(c3c(C)[nH][nH]c3=O)c3c(C)[nH][nH]c3=O)cc2)cc1,"inconclusive: 17.8 µM [activator, partial curve]",–
Cc1ccccc1Nc1c(-c2c[nH]c3ccccc23)nc2cccc(C)n12,"inconclusive: 2.24 µM [activator, full curve]",–
Clc1cccc(-n2ncc3c(NC4CCCCCC4)ncnc32)c1,"inconclusive: 1.12 µM [activator, partial curve, poor fit]",–
CCOCCc1nn2c(=O)cc(COC(=O)c3ccccc3NC(=O)c3ccc(C)cc3)nc2s1,"inconclusive: 14.1 µM [activator, partial curve]",–
Cc1ccc2nc3c(c(Nc4ccc(C)c(C)c4)c2c1)CCC3,inactive,–
Cc1ccc2nc(/C(C#N)=C/c3ccc(-c4ccc(C(=O)OC(C)C)cc4)o3)[nH]c2c1,"inconclusive: 1.58 µM [activator, partial curve, poor fit]",–
CCC(C)n1c(=N)c(C(=O)NCc2ccco2)cc2c(=O)n3cc(C)ccc3nc21 (stereo not drawn),–,inconclusive: 17.7% [activator]
Cc1cc(N2CCN(C)CC2)nc2ccc(NC(=O)c3ccccc3F)cc12,"inconclusive: 14.1 µM [activator, partial curve, poor fit]",–
Cc1cccc(NC(=O)Nc2ccc(C)c(C)c2)n1,"inconclusive: 2.82 µM [activator, full curve]",–
Cc1ccc(N2CCN(C(=O)c3cn(C)c4ccc(S(=O)(=O)N5CCC(C)CC5)cc4c3=O)CC2C)cc1 (stereo not drawn),"inconclusive: 2.24 µM [activator, partial curve, poor fit]",–
O=C(CSc1nccn1Cc1ccco1)Nc1ccc(OC(F)(F)F)cc1,"inconclusive: 14.1 µM [activator, partial curve]",–
COc1ccc(C(=O)Nc2ccc(-c3nc4cc(C)ccc4o3)c(O)c2)cc1,inactive,–
Cc1cccc2nc(-c3ccc(Cl)s3)c(Nc3ccc4c(c3)OCCO4)n12,"inconclusive: 3.98 µM [activator, full curve]",–
Brc1ccc(-c2cn3cc(Cc4ccccc4)sc3n2)cc1,"inconclusive: 0.199 µM [activator, full curve, poor fit]",–
CCOC(=O)c1ccc(NC(=O)c2noc3c2CCCC3)cc1,"inconclusive: 1 µM [activator, partial curve, poor fit]",–
CCN(c1ccccc1)c1ncnc2c1cnn2-c1ccc(OC)cc1,"inconclusive: 1.41 µM [activator, full curve, poor fit]",–
Cc1ccc(SCC(=O)Nc2ccc(O)c(-c3nc4cc(C)ccc4o3)c2)cc1,"inconclusive: 2.51 µM [activator, full curve]",–
CCCCCc1nn2cc(-c3ccccc3)nc2s1,"inconclusive: 0.178 µM [activator, full curve, poor fit]",–
CC(C)(C)NC(=O)c1ccc2nc(CCc3ccccc3)oc2c1,"inconclusive: 3.55 µM [activator, full curve]",–
CC(C)c1ccc(C(=O)Nc2cccc3cccnc23)cc1,"inconclusive: 14.1 µM [activator, partial curve, poor fit]",–
